Test results taken from PMC6919601, “Identification of Plasmodium dipeptidyl aminopeptidase allosteric inhibitors by high throughput screening” (PLoS ONE, 2019).
Screen size: about 110,000 compounds; about 230 (0.21%) showed an effect of 50% or more. The list shows a part of the results.

Target: DPAP1 (Plasmodium falciparum, UniProt Q8IIJ9)
Test: primary screen, percent inhibition; read by cleavage of a fluorogenic dipeptide substrate; higher = more effect of the substance
Parameters: species or system P. falciparum D10 trophozoite lysates; single well
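Also: 30 min substrate incubation versus DMSO and 10 µM JCP410 controls.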

Chain of DPAP1 (Q8IIJ9 whole entry, looked up): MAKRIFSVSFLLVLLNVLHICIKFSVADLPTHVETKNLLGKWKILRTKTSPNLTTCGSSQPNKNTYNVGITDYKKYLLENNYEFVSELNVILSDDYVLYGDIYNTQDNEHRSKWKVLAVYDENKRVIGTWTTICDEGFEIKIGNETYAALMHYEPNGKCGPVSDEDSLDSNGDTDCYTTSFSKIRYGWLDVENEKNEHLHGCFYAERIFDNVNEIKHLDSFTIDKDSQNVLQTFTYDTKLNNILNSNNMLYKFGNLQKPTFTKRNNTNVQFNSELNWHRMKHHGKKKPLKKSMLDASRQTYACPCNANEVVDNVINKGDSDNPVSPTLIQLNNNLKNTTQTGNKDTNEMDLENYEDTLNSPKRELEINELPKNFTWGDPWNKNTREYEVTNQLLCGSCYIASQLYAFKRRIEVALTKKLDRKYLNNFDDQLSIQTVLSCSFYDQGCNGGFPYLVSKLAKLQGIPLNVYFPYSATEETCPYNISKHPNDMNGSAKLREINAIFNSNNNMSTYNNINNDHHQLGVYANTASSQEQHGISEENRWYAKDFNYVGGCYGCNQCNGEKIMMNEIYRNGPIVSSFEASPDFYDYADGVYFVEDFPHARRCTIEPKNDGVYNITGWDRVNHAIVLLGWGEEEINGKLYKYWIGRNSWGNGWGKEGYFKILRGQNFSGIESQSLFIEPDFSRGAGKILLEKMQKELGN

SMILES | % Inhibition @ 10 uM [%]
CC(C)C[C@H](NC(=O)c1ccc(N2CCOCC2)cc1)C(=O)NCCN(CC(C)C)CC(C)C | 0.173
CCOC(=O)N1CCN(c2c(NC3CCCCCC3)c(=O)c2=O)CC1 | 3.54
O=C(Cc1ccc(-c2ccccc2)cc1)Nc1ccc(F)cc1 | 0.634
CCC(=O)Nc1ccc2nc(SCC(=O)N3CCN(c4ccccc4)CC3)sc2c1 | -0.759
O=C(O)COc1cccc(-c2nc3ccccc3s2)c1 | -10.6
CC(=O)c1c(C)oc2ccc(NS(=O)(=O)c3ccc4c5c(cccc35)C(=O)N4)cc12 | 19
Cc1ccc2nc3c(cc(C(=O)NCC4CCCO4)c(=N)n3C3CCCCC3)c(=O)n2c1 (stereo not drawn) | 3.6
Cc1nn(CC(=O)N2CCCCC2)c2ccccc12 | -4.71
Cc1cc(C)cc(Oc2nc3ccccn3c(=O)c2/C=C(\C#N)C(=O)NCCc2ccccc2)c1 | -5.1
COc1ccccc1-c1cc(/N=C(/NCC2CCCO2)SC)[nH]n1 (stereo not drawn) | -5.92
O=C(Nc1ccc(N2C(=O)CCC2=O)cc1)c1ccccc1 | 2.63
Cc1ccccc1-c1c(C)oc2c(CN(C)C)c(O)ccc2c1=O | -18.8
O=C(O)CCC(=O)N1N=C(c2ccc(Br)cc2)CC1c1cccs1 (stereo not drawn) | -0.413
COc1cc2c(cc1OC)C(c1cccc(Cl)c1)N(C1CCSC1)CC2 (stereo not drawn) | -0.13
COc1ccc(OCCNC(=O)c2ccc3snnc3c2)cc1 | -5.36
CCN(CC)C(=O)c1sc(NC(=O)c2cccc(C)c2)c(C#N)c1C | -0.864
Cc1noc(/C=C/c2ccco2)c1S(=O)(=O)N1CCC(C(=O)NCCN2CCCCCC2)CC1 | 0.458
Cc1ccc(CNC(=O)CCCn2sc3ccccc3c2=O)cc1 | -1.06
COc1ccc(C2=N/C(=C\c3ccc(OC)c(OC)c3OC)C(=O)O2)cc1 | 5.79
Cc1cccc(N2CCN(C(=O)c3cccc([N+](=O)[O-])c3C)CC2)c1C | -5.62
N#Cc1nc(-c2ccc(F)cc2)oc1N1CCN(Cc2ccccc2)CC1 | 0.101
CCOC(=O)c1[nH]c2ccccc2c1NC(=O)c1ccccc1Cl | -3.48
Cc1cc(C)nc(NC(=O)NS(=O)(=O)Nc2ccc(Br)cn2)n1 | 0.716
Cc1ccc(C)c(Cn2cnc3ccccc32)c1 | -0.99
CC1=CC(C)C(C(=O)O)C(C(=O)O)C1 (stereo not drawn) | -4.18

SMILES | % Inhibition @ 10 uM [%]
Fc1ccc(N2CCN(Cc3cccc(Cl)c3Cl)CC2)cc1 | -9.48
Cc1ccc2ccc(S(=O)(=O)N3CCOCC3)cc2c1 | -2
CC(NC(=O)CCCn1sc2ccccc2c1=O)c1ccccc1 (stereo not drawn) | -2.84
CCC1CCCCN1CCCNC(=O)Cn1ncc2c(C)n(Cc3ccccc3)c(C)c2c1=O (stereo not drawn) | 2.84
CSc1cc(-c2ccco2)oc1C(=O)c1ccco1 | -3.33
Cc1nc2sccn2c1-c1csc(Nc2ccc(O)cc2)n1 | -2.48
Cc1cc(-c2[nH]nc3c2C(c2cccc(C(F)(F)F)c2)C(C#N)=C(N)O3)c(C)s1 (stereo not drawn) | -6.59
CC1CCN(C(=O)C23CCC(C)(C(=O)O2)C3(C)C)CC1 (stereo not drawn) | -2.14
Cc1ccc(Cl)cc1N/C=C(\C#N)C(=O)NC(=O)Cc1ccccc1 | -4.75
Cc1ccc(C)n1-c1ccc(Oc2ccc(C#N)cc2)cc1 | 4.54
Cc1ccc(CNC(=O)CCCN2C(=S)NC(C)(C)CC2C)cc1 (stereo not drawn) | 1.91
CCCC(=O)Nc1ccc(-c2cn3cccc(C)c3n2)cc1 | -1.89
CC1=NN(c2ccccc2)C(=O)/C1=C1/C(=O)Nc2ccccc21 | -2.76
Cc1ccc(CNC(=O)COc2ccc(S(=O)(=O)NC3CCCC3)cc2)cc1 | -1.61
CC1CCN(S(=O)(=O)c2ccc3c(ccn3CCC(=O)N3CC(C)CC(C)C3)c2)CC1 (stereo not drawn) | 3.45
O=C(Nc1cccc(C(F)(F)F)c1)C1CC(=O)N(c2ccc(Br)cc2)C1 (stereo not drawn) | 1.71
CCCC[C@H](NC(=O)[C@H](CCC)N[C@@H](c1ccc(-c2ccc(S(N)(=O)=O)cc2)cc1)C(F)(F)F)C(=O)c1nnc(-c2ccco2)o1 | -4.72
CCOC(=O)C1=CN(C)C=C(C(=O)OCC)C1c1ccc(OC)c(Br)c1 | 4.99
CCc1ccc2nc(N3CCC(C(=O)NC(C)c4ccccc4)CC3)sc2c1 (stereo not drawn) | 1.07
Cc1cnc(NC(=O)CSc2nnc(COc3c(C)cccc3C)o2)s1 | -8.71
O=C(NC(Cc1ccccc1)c1ccccc1)c1ccco1 (stereo not drawn) | -6.91
O=C(Cc1ccc(F)cc1F)Nc1ccc(Br)cc1 | -2.54
COc1ccc(-c2cn3c(C)c(C(=O)NCCCOC(C)C)sc3n2)cc1 | 3.19
COc1ccc(-n2ccc3ccccc32)cc1 | -4.06
CCOc1ccc(C(=O)C2=C(O)C(=O)N(c3nccs3)C2c2ccc(C)cc2)cc1 (stereo not drawn) | 0.583

SMILES | % Inhibition @ 10 uM [%]
Cc1noc2ncn(CC(=O)NC(C)C)c(=O)c12 | -4.21
CCN(CCNc1ncnc2onc(-c3ccc(F)cc3)c12)Cc1ccccc1 | 0.533
O=C(NCc1ccco1)C1CC(c2ccccc2F)=NO1 (stereo not drawn) | -0.431
COC(=O)c1ccc(COc2ccc3c(=O)c(-c4ccccc4)coc3c2)cc1 | -3.21
O=C(Nc1ccccc1)Nc1ccc(S(=O)(=O)N2CCCCCC2)cc1 | -5.32
COc1ccc(N(C(C)C(=O)Nc2ccc(C)c(C)c2)S(C)(=O)=O)cc1 (stereo not drawn) | -1.95
CCCCNC(=O)C1CCN(c2nnc(C)c3c(C)n(-c4ccccc4)nc23)CC1 | 10.2
CN(C)c1cccc(NC(=O)C(c2ccccc2)c2ccccc2)c1 | 1.57
Cc1ccc(S(=O)(=O)NCc2ccc(C(=O)NCCCN(CC(C)C)CC(C)C)cc2)cc1 | -3.35
CC1CN(S(=O)(=O)c2ccc(C(=O)N3CCNCC3)cc2)CC(C)O1 (stereo not drawn) | -1.11
CCCN1CCC(N2CCCCCC2)CC1 | -3.6
Cc1cc(C)cc(OCC(O)CNC(C)C)c1 (stereo not drawn) | 3
COc1cc(C2C3=C(O)CCCC3=Nc3nn(-c4ccccc4)c(O)c32)ccc1O (stereo not drawn) | -5
CCOC(=O)C1=C(C)N=C(SC)NC1c1ccc(OC)cc1 (stereo not drawn) | 5.04
Cc1cc(C)c2c(n1)SCC(=O)N2CCCC(=O)NCc1ccc(OC(C)C)cc1 | 1.03
N#Cc1c(-c2ccc(Cl)cc2)nc2n(c1=O)CCS2 | 2.45
Cc1cccc2sc(NS(=O)(=O)c3ccc(F)cc3)nc12 | -5.57
CCN(CC)CCCNC(=O)CSc1cc(Cl)nc2ccc(C)cc12 | 4.33
CCS(=O)(=O)N1CCCC(C(=O)NCc2ccc3c(c2)OCO3)C1 (stereo not drawn) | 1.62
CCCNC(=O)c1ccc(C2SCC(=O)N2Cc2ccccc2)cc1 (stereo not drawn) | -2.32
Cc1oc2c(c1C(=O)NCc1cc(C(=O)O)co1)CCCC2 | -3.34
COc1ccc(Cl)cc1-c1nc(-c2ccc(C)cc2)no1 | -3.53
CCOCC(O)CSCc1ccc(Cl)cc1 (stereo not drawn) | -2.54
CC(C)CNS(=O)(=O)c1ccc(CCC(=O)NC2CCCCC2)cc1 | 4.05
Cc1ccc(CSc2nc(=O)c3c(n2C)NC(=O)CC3c2ccc(O)c(O)c2)cc1 (stereo not drawn) | 11.1

SMILES | % Inhibition @ 10 uM [%]
O=C(Cc1ccncn1)c1ccccc1 | 2.55
CN1CCN(Cc2c3c(c(CN4CCN(C)CC4)c4c2CCC4)CCC3)CC1 | -4.15
CCOCCCNC(=O)c1c(NC(=O)Cc2coc3c(C)c(C)ccc23)sc2c1CCCC2 | -0.671
COc1ccc(CNC(=O)Cc2c(C)nc3c(-c4ccc(F)cc4)c(C)nn3c2C)cc1 | 2.57
CCCS(=O)(=O)N1CCC(C(=O)NC(C)CC)CC1 (stereo not drawn) | 3.24
COc1ccc(C2=N/C(=C\c3cc(Br)cs3)C(=O)O2)cc1Br | -2
CC(C)N(CCCNC(=O)Cn1c2ccccc2c2cnnc(O)c21)Cc1ccccc1 | 3
COc1ccc(Br)cc1CNC(=O)Cn1c(=O)c2cccn2c2cccnc21 | -1.24
Cc1ccc(-c2onc(C)c2C)cc1S(=O)(=O)Nc1cccnc1 | -1.52
COC(=O)C1=C(C)N(Cc2ccccc2)C(=O)/C1=C\c1ccc(C(=O)O)cc1 | -1.6
O=C(COc1ccc2ccccc2c1Br)Nc1nccs1 | -0.759
CCOc1cccc(C(=O)Nc2c(C(=O)c3ccccc3)oc3ccccc23)c1 | -2.91
Cc1nn(-c2ccccc2)c2c1C(c1cccc([N+](=O)[O-])c1)C(C#N)=C(N)O2 (stereo not drawn) | -0.807
O=C1/C(=C/c2ccc3nccnc3c2)CCC1C1CCCC1 (stereo not drawn) | 66.2
COC(=O)c1ccc(-n2nnnc2SCc2c(C)ccc3ccccc23)cc1 | 3.25
COC(=O)C1=C(C)NC(=O)C1(NC(=O)c1ccncc1)C(F)(F)F (stereo not drawn) | -0.403
CCC(C)NC(=O)C(=O)NCc1ccccc1 (stereo not drawn) | -4.01
Cc1ccc(C(=O)NCc2ccc3c(c2)OCO3)cc1C | 0.611
COc1ccccc1-c1nn2c(Cc3ccccc3)nnc2s1 | 3.38
Clc1ccc(-c2noc(-c3ccccn3)n2)cc1 | -5.21
CC1(C)CC(Cc2ccccc2)(C(=O)O)CCO1 (stereo not drawn) | -1.99
CCOc1ccc(-c2cc(C(=O)N3CCN(Cc4ccc(OC)c(OC)c4OC)CC3)[nH]n2)cc1 | 0.297
COCCCN1CC(=O)C(c2nc3cc(C)ccc3[nH]2)=C1N | -6.72
C=CCCCC(C=C)S(=O)(=O)c1ccc(C)cc1 (stereo not drawn) | 5.58
